Measured values from the supplement of paper PMC4967469.
By IC50 is meant the dose at which the fit gives 50% viability; fits outside the tested doses are given as limits. AUC is the area under the same curve over the 256-fold range up to the top dose, as a fraction; the more sensitive the line, the further below 1. The top dose, if marked as inferred, was derived from the fitted curves, not read from the paper.

Compound: O=C1NC(=NCc2cccs2)S/C1=C\c1ccc2ncccc2c1 [RO-3306]
Assay: Viability of human cancer cell lines after 72 h of drug (GDSC screen)
Conditions: top dose 5 µM; top dose inferred
Description: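 Human cancer cell lines in 384-well plates, medium with 10% serum, drug for 72 h over a 256-fold dose range (nine 2-fold or five 4-fold steps up to the top dose). Adherent lines were fixed and stained with the nucleic acid dye Syto60, suspension lines read with resazurin; signal relative to control wells, capped at 0 and 100%. One two-parameter sigmoid per drug and line, fitted in a mixed model over all curves with the slope shared within a line.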

Cell Line | AUC | IC50
DBTRG-05MG (glioma, adherent) | 0.983 | > 5 µM
DEL (lymphoid neoplasm, suspension) | 0.993 | > 5 µM
DG-75 (Burkitt lymphoma, suspension) | 0.951 | > 5 µM
DIFI (large intestine, adherent) | 0.946 | > 5 µM
DJM-1 (skin, adherent) | 0.988 | > 5 µM
DK-MG (glioma, adherent) | 0.977 | > 5 µM
DMS-79 (small cell lung carcinoma, suspension) | 0.981 | > 5 µM
DMS-114 (small cell lung carcinoma, adherent) | 0.943 | > 5 µM
DMS-273 (small cell lung carcinoma, adherent) | 0.944 | > 5 µM
DND-41 (T-cell leukaemia, suspension) | 0.99 | > 5 µM
DOHH-2 (B-cell lymphoma, suspension) | 0.986 | > 5 µM
DOK (head and neck, adherent) | 0.812 | 4.6 µM
DOV13 (ovary, adherent) | 0.936 | > 5 µM
DSH1 (bladder, adherent) | 0.958 | > 5 µM
DU-145 (prostate, adherent) | 0.979 | > 5 µM
DU-4475 (breast, suspension) | 0.983 | > 5 µM
Daudi (Burkitt lymphoma, suspension) | 0.991 | > 5 µM
Detroit562 (head and neck, adherent) | 0.982 | > 5 µM
DoTc2-4510 (cervix, adherent) | 0.964 | > 5 µM
EB2 (Burkitt lymphoma, suspension) | 0.99 | > 5 µM
EB-3 (Burkitt lymphoma, suspension) | 0.98 | > 5 µM
EBC-1 (lung squamous cell carcinoma, adherent) | 0.969 | > 5 µM
EC-GI-10 (oesophagus, adherent) | 0.964 | > 5 µM
ECC10 (stomach, suspension) | 0.982 | > 5 µM
EFM-192A (breast, adherent) | 0.959 | > 5 µM
EFO-21 (ovary, adherent) | 0.95 | > 5 µM

Cell Line | AUC | IC50
EFO-27 (ovary, adherent) | 0.946 | > 5 µM
EGI-1 (biliary tract, adherent) | 0.971 | > 5 µM
EHEB (lymphoid neoplasm, suspension) | 0.963 | > 5 µM
EJM (lymphoid neoplasm, semi-adherent) | 0.992 | > 5 µM
EKVX (lung adenocarcinoma, adherent) | 0.955 | > 5 µM
EM-2 (chronic myeloid leukaemia, suspension) | 0.978 | > 5 µM
EMC-BAC-1 (lung adenocarcinoma, adherent) | 0.963 | > 5 µM
EMC-BAC-2 (lung adenocarcinoma, adherent) | 0.93 | > 5 µM
EN (endometrium, adherent) | 0.914 | > 5 µM
ES1 (Ewing sarcoma, adherent) | 0.904 | > 5 µM
ES3 (Ewing sarcoma, adherent) | 0.867 | 4.9 µM
ES4 (Ewing sarcoma, adherent) | 0.97 | > 5 µM
ES5 (Ewing sarcoma, adherent) | 0.957 | > 5 µM
ES6 (Ewing sarcoma, adherent) | 0.936 | > 5 µM
ES7 (Ewing sarcoma, adherent) | 0.934 | > 5 µM
ES8 (Ewing sarcoma, adherent) | 0.902 | > 5 µM
ES-2 (ovary, adherent) | 0.887 | 4.39 µM
ESO26 (oesophagus, adherent) | 0.989 | > 5 µM
ESO51 (oesophagus, semi-adherent) | 0.978 | > 5 µM
ESS-1 (endometrium, adherent) | 0.973 | > 5 µM
ETK-1 (biliary tract, adherent) | 0.971 | > 5 µM
EVSA-T (breast, adherent) | 0.855 | 3.12 µM
EW-1 (Ewing sarcoma, semi-adherent) | 0.976 | > 5 µM
EW-3 (Ewing sarcoma, adherent) | 0.961 | > 5 µM
EW-7 (Ewing sarcoma, semi-adherent) | 0.99 | > 5 µM
EW-11 (Ewing sarcoma, adherent) | 0.981 | > 5 µM

Cell Line | AUC | IC50
EW-13 (Ewing sarcoma, suspension) | 0.986 | > 5 µM
EW-16 (Ewing sarcoma, adherent) | 0.967 | > 5 µM
EW-18 (Ewing sarcoma, suspension) | 0.978 | > 5 µM
EW-22 (Ewing sarcoma, adherent) | 0.984 | > 5 µM
EW-24 (Ewing sarcoma, semi-adherent) | 0.992 | > 5 µM
EoL-1-cell (haematopoietic neoplasm, suspension) | 0.987 | > 5 µM
FADU (head and neck, adherent) | 0.914 | > 5 µM
FLO-1 (oesophagus, adherent) | 0.916 | > 5 µM
FTC-133 (thyroid, adherent) | 0.983 | > 5 µM
FU97 (stomach, adherent) | 0.986 | > 5 µM
FU-OV-1 (ovary, adherent) | 0.955 | > 5 µM
Farage (B-cell lymphoma, suspension) | 0.984 | > 5 µM
G-292 Clone A141B1 (osteosarcoma, adherent) | 0.976 | > 5 µM
G-361 (melanoma, adherent) | 0.988 | > 5 µM
G-401 (kidney, adherent) | 0.968 | > 5 µM
G-402 (soft tissue, adherent) | 0.964 | > 5 µM
GA-10 (Burkitt lymphoma, suspension) | 0.975 | > 5 µM
GAK (melanoma, adherent) | 0.986 | > 5 µM
GAMG (glioma, adherent) | 0.858 | 4.44 µM
GB-1 (glioma, adherent) | 0.91 | > 5 µM
GCIY (stomach, adherent) | 0.98 | > 5 µM
GDM-1 (acute myeloid leukaemia, suspension) | 0.987 | > 5 µM
GI-1 (glioma, adherent) | 0.987 | > 5 µM
GI-ME-N (neuroblastoma, adherent) | 0.88 | > 5 µM
GMS-10 (glioma, adherent) | 0.971 | > 5 µM
GOTO (neuroblastoma, adherent) | 0.944 | > 5 µM

Cell Line | AUC | IC50
GR-ST (lymphoblastic leukaemia, suspension) | 0.937 | > 5 µM
GRANTA-519 (B-cell lymphoma, suspension) | 0.988 | > 5 µM
GT3TKB (stomach, adherent) | 0.953 | > 5 µM
H4 (glioma, adherent) | 0.717 | 1.27 µM
H9 (lymphoid neoplasm, suspension) | 0.991 | > 5 µM
H290 (mesothelioma, adherent) | 0.984 | > 5 µM
H2369 (mesothelioma, adherent) | 0.911 | > 5 µM
H2373 (mesothelioma, adherent) | 0.959 | > 5 µM
H2461 (mesothelioma, adherent) | 0.945 | > 5 µM
H2591 (mesothelioma, adherent) | 0.977 | > 5 µM
H2595 (mesothelioma, adherent) | 0.823 | 4.65 µM
H2731 (mesothelioma, adherent) | 0.896 | > 5 µM
H2795 (mesothelioma, adherent) | 0.969 | > 5 µM
H2869 (mesothelioma, adherent) | 0.967 | > 5 µM
H3118 (head and neck, adherent) | 0.794 | 2.54 µM
H3255 (lung adenocarcinoma, adherent) | 0.97 | > 5 µM
H-EMC-SS (chondrosarcoma, adherent) | 0.841 | > 5 µM
HA7-RCC (kidney, adherent) | 0.936 | > 5 µM
HAL-01 (lymphoblastic leukaemia, suspension) | 0.958 | > 5 µM
HARA (lung squamous cell carcinoma, adherent) | 0.954 | > 5 µM
HC-1 (hairy cell leukaemia, suspension) | 0.974 | > 5 µM
HCC38 (breast, adherent) | 0.943 | > 5 µM
HCC202 (breast, adherent) | 0.98 | > 5 µM
HCC1143 (breast, adherent) | 0.978 | > 5 µM
HCC1187 (breast, suspension) | 0.985 | > 5 µM
